Out of some 48,000 compounds screened, about 450 (0.94%) were called active. Another 19% or so got no clear call; they are omitted. Calls come from the whole dose curve; as a rule, active = well fitted inhibition curve with a large enough effect; inconclusive = small, poorly fitted or top-dose-only effect; inactive = no such curve, though single readings can be large or run the other way. The list shows a part of the results.
Assay: Primary qHTS for Identification of Small Molecule Inhibitors of Huntingtin Promoter Activity; note: nearly all actives have a fitted effect of over 50% in size
Conditions: HEK293 HTT promoter firefly luciferase reporter (activity 0% = vehicle and -100% = no light), 24 h; series mostly up to 57.5 µM; activity change, negative = inhibition: at the top concentration
In short: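 Quantitative HTS used concentration series of up to 57.5 uM final on HEK293 luciferase reporter cells, 24 h at 37 degrees C. Readout was Dual-Glo firefly luminescence.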
Potency is the fitted concentration of half-maximal effect.

Activity change, negative = inhibition, inactive:
CCOc1ccc(CCNC(=O)c2cc(Nc3ccc(C)cc3C)nc3ccccc23)cc1OCC 13%
CC1CCN(S(=O)(=O)c2ccc3[nH]cc(C(=O)NCc4ccc(F)cc4)c(=O)c3c2)CC1 -1.78%
O=C1Cc2cc(S(=O)(=O)N3CCCCC3)cc3c2N1CCC3 -16.4%
Cc1ccc(N2CC(NC(=O)Cc3ccc(F)cc3)CC2=O)cc1 (stereo not drawn) -16.6%
Cc1cccc(CSc2nc(=O)c3c(n2C)NC(=O)CC3c2cccc(O)c2)c1 (stereo not drawn) -12.9%
Cc1ccc2c(c1)sc1nc(-c3cc4cc(Cl)ccc4oc3=O)cn12 -27.1%
COc1ccccc1NC(=O)Cn1c(=O)n(-c2cccc(Cl)c2)c(=O)c2sc3ccccc3c21 -13%
COc1cc2[nH]c(=O)n(Cc3ccc(C(=O)NCc4ccc(C)cc4)cc3)c(=O)c2cc1OC -22.7%
O=C(Cn1c(=O)n(Cc2ccc(C(=O)NCc3ccc4c(c3)OCO4)cc2)c(=O)c2ccccc21)Nc1cccc(Cl)c1 -6.33%
Cc1cnc(NC(=O)Nc2cc(Br)c(C)cc2OC[C@@H]2CNCCO2)cn1 -27.7%
CC1=C(C(=O)Nc2cccc(C(F)(F)F)c2)C2(CCCCCC2)OC1=O -9.21%
CC(C)CCn1c(=O)c2sccc2n2c(CCCC(=O)Nc3ccc(C(C)C)cc3)nnc12 -13.7%
COc1ccc(N2CCN(c3nc4ccccc4n4c(C)nnc34)CC2)cc1 -5.06%
CCOc1ccc2nc(NC(=O)c3nc(SCc4ccc(C)cc4)ncc3Cl)sc2c1 -9.99%
Cc1ccc2occ(CC(=O)Nc3c(C(=O)Nc4ccc(Cl)cc4)oc4ccccc34)c2c1 7.16%
CC(C)COc1ccc(C(=O)N2CCC(c3nc4ccccc4s3)CC2)cc1 -21.9%
O=C(CC1N=C2c3ccccc3N=C(SCC(=O)Nc3ccccc3F)N2C1=O)NCc1ccc2c(c1)OCO2 (stereo not drawn) 7.32%
Cc1cccc(C)c1NC(=O)CN(C)S(=O)(=O)c1ccc2[nH]c3c(c2c1)CCCC3 -22.8%
CN(C(=O)CSc1nc2ccccc2[nH]1)c1ccc(F)cc1 7.42%
Cc1ccc(CSc2nncn3c2cc2sccc23)cc1 2.21%
Cc1c(C(=O)Nc2ccc(N3C[C@@H](C)O[C@@H](C)C3)nc2)cccc1-c1ccc(OC(F)(F)F)cc1 5.8%
Cc1cccc(N2C(=O)N(Cc3ccc(C(C)(C)C)cc3)c3ccccc3S2(=O)=O)c1 -23.7%
COc1ccccc1NC(=O)C1=C(C)Nc2nc(SCC(=O)c3ccc(C)cc3)nn2C1c1ccc(F)cc1 (stereo not drawn) -2.74%
CC1CCCN(S(=O)(=O)c2cc(C(=O)NCCc3ccccc3)n(C)c2)C1 (stereo not drawn) -8.98%
Cc1ccccc1CNC(=O)c1ccc(Cn2c(SCc3ccccc3)nc3cccnc32)cc1 -13.4%
Cc1ccc(-c2nc(CNC(=O)NC3CCCCC3)c(C)o2)cc1 0%
COc1ccc(CNc2nc(-c3ccco3)nn2C(=O)c2ccccc2C)cc1 16.2%
CCc1ccc(C(=O)Nc2cccc(-c3nc4cc(C(C)C)ccc4o3)c2)cc1 -4.16%
CC(=O)c1cccc(NC(=O)Nc2cc3c(cc2N2CCCC2)n(C)c(=O)n3C)c1 -3.23%
Cc1ccc(Cl)cc1NC(=O)c1ccc2nc(CCc3ccccc3)oc2c1 -31.1%
CCn1cc(C(=O)NCc2ccccc2Cl)c(=O)c2cc(S(=O)(=O)N3CCCCCC3)ccc21 10.7%
CCOc1ccc(Nc2oc(-c3ccc(COc4ccc(C)cc4)o3)nc2C#N)cc1 -20.8%
COc1ccc(NC(=O)c2nnn(CC(=O)Nc3cc(C)cc(C)c3)c2N)c(OC)c1 -2.76%
CCN(C(=O)c1cc(S(=O)(=O)N2CCCC2)cn1C)c1ccc(OC)cc1 15%
CCCCC(=O)Nc1ccc(C(=O)OCc2cc(=O)n3ccsc3n2)cc1 -8.09%
O=S(=O)(c1ccccc1)c1nc(-c2ccco2)oc1SCc1ccc(F)cc1 -35%
CSCC[C@H](NC(=O)[C@H](Cc1c[nH]c2ccccc12)NC(=O)CCNC(=O)OC(C)(C)C)C(=O)N[C@@H](CC(=O)O)C(=O)N[C@@H](Cc1ccccc1)C(N)=O 2.13%
Cc1ccc(NC(=O)Cn2c(=O)cc(-c3ccccc3)c3c(C)nn(C)c32)c(Cl)c1 -6.58%
CCOC(=O)c1sc2cccc(F)c2c1S(=O)(=O)Nc1ccccc1F -13.3%
Cc1ccc(C)c(NC(=O)Cn2c(=O)n(CC(=O)NCCc3ccccc3)c(=O)c3ccccc32)c1 -6.4%
O=C(CSc1nnc(-c2ccc(Cl)cc2)c(-c2ccc(Cl)cc2)n1)NC1CCCC1 -8.28%
N#Cc1ccccc1NC(=O)C(=O)NCC(c1cccnc1)N1CCc2ccccc21 (stereo not drawn) -25%
O=C(Nc1cc(F)ccc1F)c1cnn2c(C(F)F)cc(-c3ccccc3)nc12 -8.44%
COC(=O)c1ccc(NC(=O)CSc2nc3cc4ccccc4cc3[nH]2)cc1 -8.98% [at 11.5 µM]
CC(C)NNC(=O)c1ccncc1 -4.08%
O=C(c1ccccc1)c1ccc2nc(N3CCN(c4ccc(F)cc4)CC3)c3nncn3c2c1 -4.65%
Cc1ccc(S(=O)(=O)c2nnn3c2nc(N2CCN(c4cccc(C)c4C)CC2)c2ccccc23)cc1C 3.22%
COc1ccccc1-c1cc2nc(C)c(CCC(=O)NC3CCCCC3)c(C)n2n1 -31.9%
O=C(NC1CCCCC1)c1ccc2c(c1)N(Cc1cccc(Cl)c1)C(=O)c1ccccc1S2=O (stereo not drawn) -19%
CCc1ccc(NC(=O)c2sc3nc(C)cc(C)c3c2NC(=O)c2ccccc2OC)cc1 23.5%
CCN(Cc1ccccc1)C(=O)CCS(=O)(=O)c1ccc2c(c1)CCN2C(C)=O -6.96%
COc1ccc(CN2CCN(S(=O)(=O)c3ccc(NC(C)=O)cc3)CC2)c(OC)c1OC -29.7%
O=C(NCc1ccco1)c1ccc2c(c1)N(Cc1cccc(Cl)c1)C(=O)c1ccccc1S2=O (stereo not drawn) -39.9%
CCOc1ccc(CCNC(=O)Cn2c(C)c3cnn(-c4ccccc4)c(=O)c3c2C)cc1 -13.9%
COc1cc(OC)c(NC(=O)CSc2cc(=O)n(C)c3ccc(Cl)cc23)cc1Cl -17.9%
CC(=O)c1cccc(Nc2nc(-c3ccccc3Cl)nc3ccccc23)c1 -31.2%
Cc1ccccc1Cn1c2ccccc2c2cnn(CC(=O)NCCc3ccc(Cl)cc3)c(=O)c21 13.8%
Nc1ncc(S(=O)(=O)NCc2ccc(F)cc2)cn1 -9.78%
CC(C)c1cccc(C(C)C)c1NS(=O)(=O)c1cccs1 -31.3%
Cc1ccc2[nH]c3c(=O)n(CC(=O)N4CCCC(C)C4)ncc3c2c1 (stereo not drawn) 0.912%
CCOC(=O)c1c(C)[nH]c(C)c1S(=O)(=O)NCC(=O)N1CCN(c2ccccc2F)CC1 -7.68%
COc1ccc(CNC(=O)C2CCN(S(=O)(=O)c3ccc4c(ccn4C)c3)CC2)cc1 -14.2%
Cc1cc(C)c2c(-n3cccc3)c(C(=O)NCC(C)c3ccccc3)sc2n1 (stereo not drawn) -15.3%
COc1ccc(C(=O)CCC(=O)Nc2cc(C)ccc2C)cc1 -14.7%
CCOc1ccccc1NC(=O)c1cc2c(=O)[nH]c3ccccc3c2s1 -13.6%
O=C1c2cccc(O)c2C(=O)c2c(O)cccc21 -5.17%
Cc1cc(C)c2c(=O)c3c(oc2c1)C(=O)N(Cc1ccco1)C3c1ccccc1F (stereo not drawn) -12.9%
COc1ccc(-c2nc(S(=O)(=O)c3ccc(C)cc3)c(NCc3ccccc3)o2)cc1 -17.4%
CCc1c(C)c(C#N)c2nc3ccccc3n2c1Nc1cccc(C(F)(F)F)c1 -16.8%
CCc1cccc(NC(=O)C(CC)n2nc(C)c3sc4ccccc4c3c2=O)c1 (stereo not drawn) -0.863%
Cc1c(C(=O)NCc2ccccc2Br)oc2ccc3c(c12)C(=O)CC(C)(C)O3 4.79%
COc1ccc(NC(=O)c2sc3nc4c(cc3c2N)CN(Cc2ccccc2)CC4)cc1OC -20.8%
Cc1noc(-c2ccc(-c3noc(-c4ccc(C(F)(F)F)cc4)n3)cc2)n1 -1.81%
CC(C)c1ccc(NC(=O)C(Cc2ccccc2)NS(=O)(=O)c2ccc3c(c2)oc(=O)n3C)cc1 (stereo not drawn) -26.1%
O=C(NCCCN1CCN(c2ccc(F)cc2)CC1)c1ccc2nc(CCc3ccccc3)oc2c1 -8.87%
CN(C)CCNC(=O)Cn1nc(N2CCN(c3ccccc3)CC2)ccc1=O 12.4%
CCOc1ccc(CC(=O)NCc2ccc3c(c2)CCN3C(C)=O)cc1OCC -22.8%
CC(C)(C)OC(=O)N1CCC(c2c(C(=O)N3CCN(c4ncccn4)CC3)cnn2-c2cccc(F)c2)CC1 -2.91%
COc1ccc(NC(=O)CCc2nnc3n(CC(C)C)c(=O)c4ccccc4n23)cc1OC -4.5%
Cc1ccc(O)c(NC(=O)COCc2cc(-c3ccco3)on2)c1 18.8%
COc1ccc(OC)c(NC(=O)Cn2cc(C(=O)c3ccc(Cl)cc3)c(=O)c3cc(OC)ccc32)c1 -20.3%
CC(=O)Nc1nonc1-c1nnc(SCc2ccccc2Cl)n1C -15.7%
COc1cc2c(cc1OC)n(CC(=O)c1ccc(C)cc1)c(=O)n1nc(CCn3nc(C)cc3C)nc21 -10.4%
COc1ccc(NC(=O)c2ccc3c(c2)CCN3S(=O)(=O)c2ccccc2)cc1 -27.4%
CCOc1ccccc1CN1CCc2nc(Nc3ccccc3)ncc2C1 -17.3%
COc1cc(CN2CCN(S(=O)(=O)c3ccc(F)cc3)CC2)cc(OC)c1OC -20.6%
COC(=O)c1cc(OC)c(OC)cc1NC(=O)c1ccc2c(c1)CCN2S(=O)(=O)c1ccccc1 -3.74%
Fc1ccc(-n2ncc3c(N4CCN(Cc5ccccc5)CC4)ncnc32)cc1 5.86%
CCc1ccc(CNC(=O)c2ccc3c(c2)nc2n3CCCCC2)cc1 62.4%
COc1ccc(OC)c(CCNC(=O)CN2C(=O)COc3ccc(S(=O)(=O)N4CCCCCC4)cc32)c1 -18.5%
Cc1ccc(C)c(Cn2cnc3ccccc3c2=O)c1 -7.94%
COc1cccc(CNC(=O)CSc2n[nH]c(-c3ccccc3Cl)n2)c1 -7.24%

Potency, active:
CC(C)c1ccc(NC(=O)Cn2c(=O)oc3cc(S(=O)(=O)N4CCCC4)ccc32)cc1 14.1 µM

From PubChem BioAssay AID1508623 (National Center for Advancing Translational Sciences (NCATS), 2021)
